AUC and IC50 data for 30 cell lines are collected here from the supplement of paper PMC4967469.

The IC50 comes from the fitted curve, where viability falls to half of the control; a fit beyond the top or the lowest dose is shown as a bound at that dose. The AUC spans the tested range (256-fold, ending at the top dose) of the same fit; it is 1 without any effect and falls as sensitivity rises. For some of these results: Where the top dose is marked as inferred, it was derived from the fitted curves, not read from the paper. A value given as a limit tells only on which side of the number the result lay.

Common to all, as to experiment: Viability of human cancer cell lines after 72 h of drug (GDSC screen)
Compound in one test: COc1cc(/C=C/C(=O)N2CCC=CC2=O)cc(OC)c1OC [piperlongumine]
As to conditions: top dose 10 µM. The protocol: (§1)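 Human cancer cell lines in 384-well plates, medium with 10% serum, drug for 72 h over a 256-fold dose range (nine 2-fold or five 4-fold steps up to the top dose). Adherent lines were fixed and stained with the nucleic acid dye Syto60, suspension lines read with resazurin; signal relative to control wells, capped at 0 and 100%. One two-parameter sigmoid per drug and line, fitted in a mixed model over all curves with the slope shared within a line.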

Compound in the next test: CC(=O)Nc1nc(C)c(-c2ccc(Cl)c(S(=O)(=O)NCCO)c2)s1 [PIK-93]
The note with it: top dose 20 µM. The protocol:
as §1

Compound in the next test: Cn1cc(/C=C2\C(=O)Nc3cccnc32)c2ccccc21 [GW 441756]
The note with it: top dose 2 µM; top dose inferred. The procedure: as §1

In general, IC50 refers to the midpoint of a concentration-inhibition curve.

As for HPAC (pancreas, adherent), the AUC in the test with piperlongumine was 0.971; in the test with PIK-93 it was 0.831. For the same cell line, the IC50 with piperlongumine is more than 10 µM; with PIK-93 it was more than 20 µM.

CAMA-1 (breast, adherent): the AUC with piperlongumine amounted to 0.792; with PIK-93 it was 0.84. For the same cell line, the results for the IC50 with piperlongumine and with PIK-93 were 5.86 µM and 19.1 µM, respectively.

Consider KOSC-2 (head and neck, adherent), for which, in the test with piperlongumine, the AUC amounted to 0.717 and the IC50 amounted to 2.65 µM. Further, in the test with PIK-93, the AUC stood at 0.871 and the half-maximal inhibitory concentration (IC50) is more than 20 µM.

As to “NCI-H1915 (large cell lung carcinoma, adherent)”, in the test with piperlongumine, the AUC stood at 0.809 and the IC50 came to 5.35 µM. Also, in the test with PIK-93, the AUC was determined as 0.886 and the IC50 was more than 20 µM.

On to SNU-1040 (large intestine, adherent), for which, in the test with piperlongumine, the AUC worked out at 0.817 and the IC50 amounted to 8.19 µM. In addition, in the test with PIK-93, the AUC was 0.835 and the IC50 is more than 20 µM.

For “NCI-H1650 (lung adenocarcinoma, adherent)”, in the test with piperlongumine, the AUC was 0.765 and the IC50 was 4.81 µM.

As for WM278 (melanoma, adherent), the figures for the AUC with GW 441756, with piperlongumine and in the test with PIK-93 were 0.98, 0.768 and 0.756, respectively. Also, the IC50 was more than 2 µM in the test with GW 441756, 4.2 µM in the test with piperlongumine and 7.63 µM in the test with PIK-93.

In the case of Mewo (melanoma, adherent), the AUC turned out to be 0.941 in the test with GW 441756, 0.749 in the test with piperlongumine and 0.937 with PIK-93. Besides, the IC50 in the test with GW 441756 is more than 2 µM; with piperlongumine it was 3.8 µM; with PIK-93, more than 20 µM.

Take J82 (bladder, adherent): in the test with piperlongumine, the AUC worked out at 0.758 and the concentration for half-maximal inhibition (IC50) is 3.45 µM. Moreover, in the test with PIK-93, the AUC worked out at 0.968 and the IC50 is more than 20 µM.

Turning to GCT (soft tissue, adherent), the figures for the AUC in the test with piperlongumine and in the test with PIK-93 were 0.599 and 0.981, respectively. The IC50 with piperlongumine is 1.15 µM; with PIK-93, more than 20 µM.

SK-MEL-24 (melanoma, adherent): the AUC in the test with GW 441756 came to 0.969; with piperlongumine, 0.772; with PIK-93, 0.795. Besides, the results for the half-maximal inhibitory concentration (IC50) in the test with GW 441756, with piperlongumine and with PIK-93 were more than 2 µM, 4.68 µM and 11.6 µM, respectively.

Turning to VMRC-RCW (kidney, adherent), in the test with GW 441756, the AUC was 0.98 and the IC50 is more than 2 µM. Moreover, in the test with PIK-93, the AUC is 0.939 and the half-inhibitory concentration (IC50) is more than 20 µM.

As to H2803 (mesothelioma, adherent), in the test with piperlongumine, the AUC worked out at 0.816 and the IC50 came out at 6.72 µM. For the same cell line, in the test with PIK-93, the AUC was found to be 0.948 and the half-maximal inhibitory concentration (IC50) is more than 20 µM.

Turning to RMG-I (ovary, adherent), the AUC with GW 441756 stood at 0.929; in the test with piperlongumine it was 0.683; with PIK-93, 0.844. Besides, the IC50 with GW 441756 is more than 2 µM; in the test with piperlongumine, 2.23 µM; in the test with PIK-93 it was 18.1 µM.

In the case of HSC-3 (head and neck, adherent), in the test with piperlongumine, the AUC stood at 0.635 and the IC50 worked out at 1.39 µM. In the test with PIK-93, the AUC was determined as 0.973 and the IC50 was more than 20 µM.

On to PCI-38 (head and neck, adherent), for which, in the test with piperlongumine, the AUC was 0.788 and the IC50 came out at 4.42 µM. For the same cell line, in the test with PIK-93, the AUC amounted to 0.858 and the IC50 was 16.5 µM.

Consider KYSE-270 (oesophagus, adherent), for which, in the test with piperlongumine, the AUC was determined as 0.783 and the IC50 came out at 3.58 µM. In the test with PIK-93, the AUC turned out to be 0.73 and the IC50 worked out at 5.01 µM.

As for KYSE-180 (oesophagus, adherent), the AUC was found to be 0.87 with piperlongumine and 0.827 with PIK-93. Besides, the IC50 with piperlongumine turned out to be 8.61 µM; with PIK-93 it was 11.5 µM.

Consider Daoy (medulloblastoma, adherent), for which the figures for the AUC with GW 441756, with piperlongumine and with PIK-93 were 0.981, 0.614 and 0.868, respectively. The IC50 with GW 441756 is more than 2 µM; with piperlongumine, 1.24 µM; with PIK-93, 15.4 µM.

With “NCI-H1793 (lung adenocarcinoma, adherent)”, in the test with piperlongumine, the AUC is 0.88 and the IC50 is more than 10 µM. Also, in the test with PIK-93, the AUC was 0.927 and the IC50 is more than 20 µM.

On to GP5d (large intestine, adherent), for which the AUC was 0.871 with piperlongumine and 0.809 in the test with PIK-93. The results for the IC50 with piperlongumine and in the test with PIK-93 were 7.74 µM and 9.09 µM, respectively.

Consider “HOP-92 (large cell lung carcinoma, adherent)”, for which the AUC worked out at 0.939 with GW 441756, 0.734 with piperlongumine and 0.961 with PIK-93. In addition, the IC50 with GW 441756 is more than 2 µM; in the test with piperlongumine, 3.27 µM; in the test with PIK-93 it was more than 20 µM.

Consider MKN45 (stomach, adherent), for which the AUC in the test with GW 441756 was determined as 0.956; with piperlongumine, 0.964; with PIK-93 it was 0.937. For the same cell line, the IC50 with GW 441756 is more than 2 µM; in the test with piperlongumine, more than 10 µM; in the test with PIK-93, more than 20 µM.

Turning to “NCI-H1734 (lung adenocarcinoma, adherent)”, the AUC in the test with GW 441756 came out at 0.896; with PIK-93, 0.887. Further, the IC50 is more than 2 µM in the test with GW 441756 and more than 20 µM with PIK-93.

“NCI-H1573 (lung adenocarcinoma, adherent)”: in the test with piperlongumine, the AUC is 0.981 and the IC50 was more than 10 µM. Moreover, in the test with PIK-93, the AUC was found to be 0.963 and the IC50 is more than 20 µM.

In the case of ML-1 (thyroid, adherent), in the test with piperlongumine, the AUC turned out to be 0.82 and the IC50 amounted to 7.05 µM. In addition, in the test with PIK-93, the AUC turned out to be 0.839 and the IC50 was 17.1 µM.

As to A204 (rhabdomyosarcoma, adherent), in the test with piperlongumine, the AUC is 0.639 and the IC50 stood at 1.7 µM. Also, in the test with PIK-93, the AUC worked out at 0.746 and the IC50 is 7.95 µM.

For HTC-C3 (thyroid, adherent), in the test with piperlongumine, the AUC came out at 0.782 and the IC50 was found to be 4.73 µM. In addition, in the test with PIK-93, the AUC came out at 0.77 and the IC50 came out at 8.54 µM.

Regarding BICR31 (head and neck, adherent), in the test with PIK-93, the AUC was 0.923 and the IC50 is more than 20 µM.

Consider SW1116 (large intestine, adherent), for which, in the test with piperlongumine, the AUC was found to be 0.837 and the IC50 is more than 10 µM. Moreover, in the test with PIK-93, the AUC turned out to be 0.98 and the IC50 was more than 20 µM.
